Test results from paper PMC7956155, “Design and Evaluation of Peptide Dual-Agonists of GLP-1 and NPY2 Receptors for Glucoregulation and Weight Loss with Mitigated Nausea and Emesis” (Journal of Medicinal Chemistry, 2021).

Assays:
human Y2-R = biological target: T1, human Y2-R (Homo sapiens, UniProt P49146); assay: cAMP FRET reporter (H188) assay at Y2-R: counteraction of adenosine-stimulated cAMP in HEK293 cells; type: cell-based
T1 sequence (P49146 1-381): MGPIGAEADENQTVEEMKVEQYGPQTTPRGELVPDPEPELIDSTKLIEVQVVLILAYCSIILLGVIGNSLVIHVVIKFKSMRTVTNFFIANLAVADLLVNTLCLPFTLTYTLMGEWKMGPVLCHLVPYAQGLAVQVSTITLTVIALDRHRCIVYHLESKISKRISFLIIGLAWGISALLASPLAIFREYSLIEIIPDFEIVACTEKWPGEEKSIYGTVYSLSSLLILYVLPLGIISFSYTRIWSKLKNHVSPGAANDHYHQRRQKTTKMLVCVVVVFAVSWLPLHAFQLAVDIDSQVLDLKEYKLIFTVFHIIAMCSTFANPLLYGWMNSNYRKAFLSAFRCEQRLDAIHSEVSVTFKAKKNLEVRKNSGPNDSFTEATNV

rat GLP-1R = biological target: T2, rat GLP-1R (Rattus norvegicus, UniProt P32301); assay: cAMP FRET reporter (H188) agonism assay at rat GLP-1R in HEK293 C24 cells; type: cell-based
T2 sequence (P32301 22-463): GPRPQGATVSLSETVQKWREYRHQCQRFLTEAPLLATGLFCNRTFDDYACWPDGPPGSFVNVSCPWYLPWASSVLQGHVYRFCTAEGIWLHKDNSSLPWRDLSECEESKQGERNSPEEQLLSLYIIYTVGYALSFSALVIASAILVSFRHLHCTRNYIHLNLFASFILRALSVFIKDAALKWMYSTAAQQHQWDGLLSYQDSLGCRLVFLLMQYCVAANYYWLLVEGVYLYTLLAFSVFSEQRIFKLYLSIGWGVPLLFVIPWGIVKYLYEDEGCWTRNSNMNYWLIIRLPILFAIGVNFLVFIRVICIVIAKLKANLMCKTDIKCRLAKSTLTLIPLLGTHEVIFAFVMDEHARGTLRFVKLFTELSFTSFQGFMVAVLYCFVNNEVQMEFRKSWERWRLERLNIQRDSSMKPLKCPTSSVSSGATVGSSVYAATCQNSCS

N=C(N)NCCC[C@H](NC(=O)CC1(CC(=O)N2CCN(C3c4ccccc4NC(=O)c4ccccc43)CC2)CCCC1)C(=O)NCCn1c(=O)n(-c2ccccc2)n(-c2ccccc2)c1=O (stereo partly drawn) [BIIE0246, reference compound]
block of GEP44 agonism at Y2-R by antagonist (human Y2-R): blocked GEP44 agonism

CC[C@H](C)[C@H](NC(=O)[C@H](Cc1ccccc1)NC(=O)[C@H](CCC(=O)O)NC(=O)[C@H](CCCNC(=N)N)NC(=O)[C@@H](NC(=O)[C@H](C)NC(=O)[C@H](CCC(=O)O)NC(=O)[C@H](CCC(=O)O)NC(=O)[C@H](CCC(=O)O)NC(=O)[C@H](CC(C)C)NC(=O)[C@H](Cc1ccc(O)cc1)NC(=O)[C@H](CCCCN=[N+]=[N-])NC(=O)[C@H](CO)NC(=O)[C@H](CC(C)C)NC(=O)[C@H](CC(=O)O)NC(=O)[C@H](CO)NC(=O)[C@@H](NC(=O)[C@H](Cc1ccccc1)NC(=O)[C@@H](NC(=O)CNC(=O)[C@H](CCC(N)=O)NC(=O)[C@@H](CO)NC(=O)[C@@H](N)Cc1c[nH]cn1)[C@@H](C)O)[C@@H](C)O)C(C)C)C(=O)N[C@@H](C)C(=O)N[C@@H](Cc1c[nH]c2ccccc12)C(=O)N[C@@H](CC(C)C)C(=O)N[C@@H](CCCCN)C(=O)N[C@@H](CC(N)=O)C(=O)NCC(=O)NCC(=O)N1CCC[C@H]1C(=O)N[C@@H](CO)C(=O)N[C@@H](CCCNC(=N)N)C(=O)N[C@@H](Cc1c[nH]cn1)C(=O)N[C@@H](Cc1ccc(O)cc1)C(=O)N[C@@H](CC(C)C)C(=O)N[C@@H](CC(N)=O)C(=O)N[C@@H](CC(C)C)C(=O)N[C@H](C(=O)N[C@H](C(=O)N[C@@H](CCCNC(=N)N)C(=O)N[C@@H](CCC(N)=O)C(=O)N[C@@H](CCCNC(=N)N)C(=O)N[C@@H](Cc1ccc(O)cc1)C(N)=O)[C@@H](C)O)C(C)C [GEP44]
pEC50 (rat GLP-1R; HEK293 C24 H188 cells transfected with rat GLP-1R, cAMP FRET): 9.32

H[dS]QGTFTSDLSKQMEEEAVRLFIEWLKNGGPSRHYLNLVTRQRY-NH2 [EP44]
Hill Coeff., dose-response at rat GLP-1R (Figure S10) (rat GLP-1R): 0.788

pEC50: −log10 of the molar value. Square brackets hold non-standard residues; d marks the D form. Ends that are not written are not given here.
